Measurements as given in publication PMC7048817, “Structure of the processive human Pol δ holoenzyme” (Nature Communications, 2020).

Target: the molecule itself
Experiment: SEC; HiLoad 16/600 Superdex 200 pg in PCNA storage buffer; 2 mg of each PCNA form in 250 μL, 1 mL/min; markers carbonic anhydrase (27 kDa) and conalbumin (75 kDa); monomers to trimer

B1: LA-PCNA (PCNA L66A, A67E) (natural protein)
chain: not shown
notes: proliferating cell nuclear antigen, human, full length, with L66A and A67E; source: E. coli BL21 (DE3), purified (HisTrap, HiTrap Q, Superdex 200)
- stoichiometry N: 3
